Results: patent US8415310B2, “Isoxazoline derivatives as antiparasitic agents” (AH USA 42 LLC, priority 2010, dated 2013)
Some of these results come from one statement about several compounds together. For some assays here: At least one structure is not confirmed: it was looked up by name or label, or the drawing left a doubt.

Tests used:
Format in all cases: in vivo
Haematobia irritans = assay: Horn Fly (Haematobia irritans) Feed Assay; conditions: horn flies fed on treated citrated bovine blood; knockdown and mortality at approximately 2 and 24 hours
Stomoxys calcitrans = assay: Stable Fly (Stomoxys calcitrans) Topical Assay; conditions: 1 μL in acetone on thorax of fly (n=10); knockdown and mortality at 2 and 24 hours
[1] = system: fleas, ticks, flies, and or sea lice; assay: at least one of the bio-assays (summary statement); conditions: assay not specified
Ctenocephalides felis = assay: Flea (Ctenocephalides felis) Membrane Feed Assay-Adult; conditions: adult fleas fed on treated citrated bovine blood approximately 2 hours; knockdown and/or death at approximately 2 and 24 hours
Ornithidorus turicata = assay: Soft Tick (Ornithidorus turicata) Blood Feed Assay; conditions: nymph stage ticks fed on treated citrated bovine blood; paralysis and/or death at approximately 24, 48 and 72 hours

Row | SMILES | lethal dose 90% (LD^90) (Haematobia irritans) | lethal dose 90% (LD^90) (Stomoxys calcitrans) | ED^100, LD^100, LD^90, and/or ED^80 value within at least one of the bio-assays [1] | lethal dose 90% (LD^90) (Ctenocephalides felis) | ED^100 (Ornithidorus turicata)
1 | CCC(=O)N1CC(F)(c2ccc(C3=NOC(c4cc(Cl)c(F)c(Cl)c4)(C(F)(F)F)C3)cc2)C1 (centres unmarked) [Example 11, 1-(3-(4-(5-(3,5-dichloro-4-fluorophenyl)-5-(trifluoromethyl)-4,5-dihydroisoxazol-3-yl)phenyl)-3-fluoroazetidin-1-yl)propan-1-one] | ≤ 1 µg/mL | ≤ 0.01 μg/fly | ≤ 0.003 µg/mL | ≤ 0.3 µg/mL | 
2 | COCC(=O)N1CC(F)(c2ccc(C3=NOC(c4cc(Cl)c(F)c(Cl)c4)(C(F)(F)F)C3)cc2)C1 (centres unmarked) [Example 16, 1-(3-(4-(5-(3,5-dichloro-4-fluorophenyl)-5-(trifluoromethyl)-4,5-dihydroisoxazol-3-yl)phenyl)-3-fluoroazetidin-1-yl)-2-methoxyethanone] | ≤ 1 µg/mL | ≤ 0.1 μg/fly | ≤ 0.01 μg/mL or μg/fly | ≤ 1 µg/mL | 
3 | O=C(C1CC1)N1CC(c2ccc(C3=NOC(c4cc(Cl)c(Cl)c(Cl)c4)(C(F)(F)F)C3)cc2)C1 (centres unmarked) [Example 91, Cyclopropyl(3-(4-(5-(3,4,5-trichlorophenyl)-5-(trifluoromethyl)-4,5-dihydroisoxazol-3-yl)phenyl)azetidin-1-yl)methanone] |  | ≤ 1 μg/fly | ≤ 1 μg/mL or μg/fly | ≤ 1 µg/mL | 
4 | CCC(=O)N1CC(F)(c2ccc(C3=NOC(c4cc(Cl)c(Cl)c(Cl)c4)(C(F)(F)F)C3)cc2)C1 (centres unmarked) [Example 99, 3-[4-(3-fluoro-1-propionylazetidin-3-yl)phenyl]-5-(3,4,5-trichlorophenyl)-5-(trifluoromethyl)-4,5-dihydroisoxazole] | ≤ 1 µg/mL | ≤ 0.03 μg/fly | ≤ 0.01 μg/mL or μg/fly | ≤ 1 µg/mL | 
5 | CC(=O)SCC(=O)N1CC(F)(c2ccc(C3=NOC(c4cc(Cl)c(F)c(Cl)c4)(C(F)(F)F)C3)cc2)C1 (stereo not drawn) [Example 165, S-[2-(3-{4-[5-(3,5-dichloro-4-fluorophenyl)-5-(trifluoromethyl)-4,5-dihydroisoxazol-3-yl]phenyl}-3-fluoroazetidin-1-yl)-2-oxoethyl]ethanethioate] |  |  |  | ≤ 3 µg/mL | ≤ 0.03 μg/cm^2
6 | O=C(NC1CC1)N1CC(c2ccc(C3=NOC(c4cc(Cl)cc(Cl)c4)(C(F)(F)F)C3)cc2)C1 (centres unmarked) [Example 188, N-cyclopropyl-3-{4-[5-(3,5-dichlorophenyl)-5-(trifluoromethyl)-4,5-dihydroisoxazol-3-yl]phenyl}azetidine-1-carboxamide] |  | ≤ 1 μg/fly | ≤ 0.1 μg/mL or μg/fly | ≤ 3 µg/mL | 
